# Experimental data from the supplement of paper PMC12217912.
# Some of the results follow. The full chains were built here from the parent and the listed change. Inactive controls read about 0.05.
# B1: TEV protease; numbered along this chain (parent)
# chain: MGESLFKGPRDYNPISSSICHLTNESDGHTTSLYGIGFGPFIITNKHLFRRNNGTLVVQSLHGVFKVKDTTTLQQHLVDGRDMIIIRMPKDFPPFPQKLKFREPQREERICLVTTNFQTKSMSSMVSDTSCTFPSGDGIFWKHWIQTKDGQCGSPLVSTRDGFIVGIHSASNFTNTNNYFTSVPKNFMELLTNQEAQQWVSGWRLNADSVLWGGHKVFMVKPEEPFQPVKEATQL
# Variants of: B1
# Test: raw area under fraction-flipped curve 0-4 h after induction (AUC4h, not background-subtracted), DNA-recorder readout of cleavage of the substrate (dimensionless); higher = more cleavage of the substrate by the protease variant
# Conditions: temperature: 34 °C; time window: 0-4 h after rhamnose induction
# 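Also: Bxb1 expression induced with 0.2% (w/v) L-rhamnose at OD600 near 0.5, cultures sampled hourly, flipped fraction per protease–substrate barcode pair counted by paired-end Illumina sequencing.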
Variant,area with substrate FNLYFQS,area with substrate GNLYFQS,area with substrate KNLYFQS,area with substrate MNLYFQS,area with substrate NNLYFQS,area with substrate TNLYFQS,area with substrate WNLYFQS,area with substrate HNLYFQS,area with substrate PNLYFQS,area with substrate SNLYFQS,area with substrate YNLYFQS,area with substrate INLYFQS,area with substrate LNLYFQS,area with substrate QNLYFQS,area with substrate VNLYFQS,area with substrate RNLYFQS
MGESLFKGPRDYNPISSSICHLTNESDGHTTSLYGIGFGPFIITNKHLFRRNNGTLVVQSLHGVFKVKDTTTLQQHLVDGRDMIIIRMPKDFPPFPQKAKFREPQREERICLVTTNFQTKSMSSMVSDTSCTFPSGDGIFWKHWIQTKDGQCGSPLVSTRDGFIVGIHSASNFTNTNNYFTSVPKNFMELLTNQEAQQWVSGWRLNADSVLWGGHKVFMVKPEEPFQPVKEATQL [L99A],0.084,0.0658,0.0606,0.0626,0.0772,0.0607,0.0638,–,–,–,–,–,–,–,–,–
MGESLFKGPRDYNPISSSICHLTNESDGHTTSLYGIGFGPFIITNKHLFRRNNGTLVVQSLHGVFKVKDTTTLQQHLVDGRDMIIIRMPKDFPPFPQKLKFLEPQREERICLVTTNFQTKSMSSMVSDTSCTFPSGDGIFWKHWIQTKDGQCGSPLVSTRDGFIVGIHSASNFTNTNNYFTSVPKNFMELLTNQEAQQWVSGWRLNADSVLWGGHKVFMVKPEEPFQPVKEATQL [R102L],0.0453,0.0617,–,0.0437,–,0.0633,–,0.047,0.0366,0.052,0.0483,–,–,–,–,–
MGESLFKGPRDYNPISSSICHLTNESDGHTTSLYGIGFGPFIITNKHLFRRNNGTLVVQSLHGVFKVKDTTTLQQHLVDGRDMIIIRMPKDFPPFPQKLKFVEPQREERICLVTTNFQTKSMSSMVSDTSCTFPSGDGIFWKHWIQTKDGQCGSPLVSTRDGFIVGIHSASNFTNTNNYFTSVPKNFMELLTNQEAQQWVSGWRLNADSVLWGGHKVFMVKPEEPFQPVKEATQL [R102V],0.0523,0.0509,–,0.063,0.0273,0.0429,0.0618,0.0446,–,–,0.0557,0.0821,0.0577,0.0673,–,–
MGESLFKGPRDYNPISSSICHLTNESDGHTTSLYGIGFGPFIITNKHLFRRNNGTLVVQSLHGVFKVKDTTTLQQHLVDGRDMIIIRMPKDFPPFPQKLKFREPQRQERICLVTTNFQTKSMSSMVSDTSCTFPSGDGIFWKHWIQTKDGQCGSPLVSTRDGFIVGIHSASNFTNTNNYFTSVPKNFMELLTNQEAQQWVSGWRLNADSVLWGGHKVFMVKPEEPFQPVKEATQL [E107Q],0.0623,–,0.0672,–,–,0.0673,0.0634,0.0592,0.0637,–,0.0448,–,0.0659,–,–,–
MGESLFKGPRDYNPISSSICHLTNESDGHTTSLYGIGFGPFIITNKHLFRRNNGTLVVQSLHGVFKVKDTTTLQQHLVDGRDMIIIRMPKDFPPFPQKLKFREPQRVERICLVTTNFQTKSMSSMVSDTSCTFPSGDGIFWKHWIQTKDGQCGSPLVSTRDGFIVGIHSASNFTNTNNYFTSVPKNFMELLTNQEAQQWVSGWRLNADSVLWGGHKVFMVKPEEPFQPVKEATQL [E107V],0.0596,–,–,0.0575,0.0728,0.0548,0.0516,0.0575,0.0796,0.0677,–,0.066,0.0617,–,0.059,–
MGESLFKGPRDYNPISSSICHLTNESDGHTTSLYGIGFGPFIITNKHLFRRNNGTLVVQSLHGVFKVKDTTTLQQHLVDGRDMIIIRMPKDFPPFPQKLKFREPQREWRICLVTTNFQTKSMSSMVSDTSCTFPSGDGIFWKHWIQTKDGQCGSPLVSTRDGFIVGIHSASNFTNTNNYFTSVPKNFMELLTNQEAQQWVSGWRLNADSVLWGGHKVFMVKPEEPFQPVKEATQL [E108W],0.051,0.0493,0.0386,–,–,0.0554,0.0534,0.056,0.0573,–,0.0429,–,0.059,–,0.071,–
MGESLFKGPRDYNPISSSICHLTNESDGHTTSLYGIGFGPFIITNKHLFRRNNGTLVVQSLHGVFKVKDTTTLQQHLVDGRDMIIIRMPKDFPPFPQKLKFREPQREERICLVTINFQTKSMSSMVSDTSCTFPSGDGIFWKHWIQTKDGQCGSPLVSTRDGFIVGIHSASNFTNTNNYFTSVPKNFMELLTNQEAQQWVSGWRLNADSVLWGGHKVFMVKPEEPFQPVKEATQL [T115I],0.0669,0.0667,–,–,–,0.0613,0.0464,0.0619,–,–,0.0609,0.0435,0.0813,–,–,–
MGESLFKGPRDYNPISSSICHLTNESDGHTTSLYGIGFGPFIITNKHLFRRNNGTLVVQSLHGVFKVKDTTTLQQHLVDGRDMIIIRMPKDFPPFPQKLKFREPQREERICLVTTGFQTKSMSSMVSDTSCTFPSGDGIFWKHWIQTKDGQCGSPLVSTRDGFIVGIHSASNFTNTNNYFTSVPKNFMELLTNQEAQQWVSGWRLNADSVLWGGHKVFMVKPEEPFQPVKEATQL [N116G],0.0525,0.0696,0.0723,0.0634,–,–,0.0516,0.0769,0.0922,0.0575,0.0555,–,0.0638,–,–,–
MGESLFKGPRDYNPISSSICHLTNESDGHTTSLYGIGFGPFIITNKHLFRRNNGTLVVQSLHGVFKVKDTTTLQQHLVDGRDMIIIRMPKDFPPFPQKLKFREPQREERICLVTTNFQNKSMSSMVSDTSCTFPSGDGIFWKHWIQTKDGQCGSPLVSTRDGFIVGIHSASNFTNTNNYFTSVPKNFMELLTNQEAQQWVSGWRLNADSVLWGGHKVFMVKPEEPFQPVKEATQL [T119N],0.0416,–,–,–,0.0813,0.0596,–,0.0525,0.0783,0.067,0.0592,0.0534,0.0779,–,0.0657,–
MGESLFKGPRDYNPISSSICHLTNESDGHTTSLYGIGFGPFIITNKHLFRRNNGTLVVQSLHGVFKVKDTTTLQQHLVDGRDMIIIRMPKDFPPFPQKLKFREPQREERICLVTTNFQTKSMSSMDSDTSCTFPSGDGIFWKHWIQTKDGQCGSPLVSTRDGFIVGIHSASNFTNTNNYFTSVPKNFMELLTNQEAQQWVSGWRLNADSVLWGGHKVFMVKPEEPFQPVKEATQL [V126D],0.0692,–,–,–,–,–,0.061,0.0561,0.0641,–,–,–,0.0756,0.0712,0.0583,0.0663
